# Measured values from the supplement of paper PMC4466236.
# Over roughly 33,000 sequences, “E-score (dimensionless, -0.5 to 0.5)” has its median near -0.058; the highest 2% begin near 0.35. The list shows a part of the results.
# Test system: MvaT
# Test: PBM 8-mer E-score (mean of HK and ME arrays) (E-score (dimensionless, -0.5 to 0.5)); higher = stronger relative binding preference; most listed sequences are background and not binding sites
# Experimental: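 Protein binding microarray: GST-tagged full-length MvaT (P. aeruginosa PAO1) bound to two universal double-stranded 60-mer arrays (ME and HK), each with a constant 25-mer primer and a variable 35-mer region covering all 8-mers. The 8-mer E-score (rank-based, range -0.5 to 0.5, >0.45 = specific binding) is the mean of the two arrays.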
row,Sequence,PBM 8-mer E-score
1,AGTAGTAA,0.27
2,AGATATCG,0.141
3,AGGGACCG,-0.271
4,ATGACTAG,0.042
5,AGGAGCGA,-0.177
6,ATTGGTCA,0.103
7,ATCCGGCA,0.0186
8,AATTAGAC,0.169
9,AGTCGAGA,-0.111
10,ATCATCGA,-0.116
11,TACGCAAA,0.129
12,ATAGAACG,0.0944
13,CAACGATC,-0.135
14,TCAACGGA,-0.0413
15,TAGTGGCA,0.195
16,AAAGGCAG,-0.181
17,AAGGACCT,-0.236
18,CGGTTAAG,-0.0554
19,AGTGAATC,-0.0528
20,CCGATCTC,-0.17
21,CGGTACAG,-0.106
22,ACTCAGTC,-0.153
23,GCCAGTCA,-0.12
24,CGATGACG,-0.106
25,GCAAGAGC,-0.122

row,Sequence,PBM 8-mer E-score
1,GAATCCCC,-0.214
2,CACATCCG,-0.145
3,AAAACATG,0.08
4,CAGTTACA,0.272
5,ACGCTCAG,-0.242
6,GCAGGGCA,-0.394
7,AGCATAAT,0.338
8,GCCCTCTA,-0.286
9,CTCTCGAC,-0.207
10,GCGATTCA,-0.0568
11,AGCTGATC,-0.16
12,AAGTGTGC,0.0466
13,CACTACCA,0.0799
14,GCTGTTAC,-0.0475
15,GTAGAGAC,0.043
16,AACCAACT,0.113
17,ATTTGGTC,0.074
18,ACATAACC,0.133
19,CCTTTTGA,-0.074
20,CAGCGTGG,-0.178
21,ACGCATCC,-0.232
22,CTTTCAGC,-0.0206
23,GCCGAGAA,-0.0283
24,AGTTTCTA,0.202
25,CTCCAAAA,0.0625

row,Sequence,PBM 8-mer E-score
1,CAAGCACC,-0.251
2,CTTACCTA,0.0935
3,GACTCGAC,-0.214
4,TCGATTAA,0.199
5,AGTGCGCC,-0.0307
6,CGGCTATA,0.051
7,AACCCCTT,-0.084
8,CTAGCGCC,-0.248
9,ACCACACG,-0.063
10,GCCTGGTA,-0.257
11,CATGGAGG,-0.231
12,GGTCTAAC,-0.0173
13,CCGTGACG,-0.163
14,AATTGGCG,0.126
15,AGGGGAAA,-0.075
16,AACTGCGC,0.00232
17,AAGATTGT,0.0798
18,ATTACTCC,0.177
19,GTAGCCAC,-0.227
20,GATGATGA,-0.0331
21,AAGATTTG,0.0664
22,CAACGTCC,-0.219
23,CTATTTGC,0.148
24,GAGTAGGA,0.0177
25,CAACTAGA,0.0954

row,Sequence,PBM 8-mer E-score
1,AAGATATC,0.26
2,GCGGCTTA,-0.112
3,GTCAAATA,0.254
4,CTTATATA,0.452
5,CGCACTTC,-0.0964
6,AAATTACA,0.274
7,CCTCGTTA,-0.0811
8,ACTATGCG,0.0353
9,CACGGCTC,-0.206
10,GCGTACAA,-0.0805
11,ACTCAGCG,-0.133
12,GGGCAAGA,-0.193
13,CTCGCATC,-0.222
14,AGCATGAA,-0.0151
15,ATGACCTC,-0.244
16,AATGGTCT,-0.112
17,GATTAGAA,0.0708
18,CCGTTTAC,0.031
19,CATGTACA,0.267
20,CTTCAGAC,-0.00427
21,CTATGTTA,0.278
22,CACATGGG,-0.172
23,AGCATCCC,-0.152
24,AGACCGAT,-0.0871
25,GTTGGGGA,-0.0857

row,Sequence,PBM 8-mer E-score
1,AGTGGGTA,-0.0364
2,TCTCCGCA,-0.146
3,CACGCAGA,-0.0444
4,TATGGGAA,0.0221
5,AAAAACGA,0.0516
6,ACTACAAC,0.215
7,AGTCTGCG,-0.171
8,GAAGCGTC,-0.252
9,GAACGGGC,-0.247
10,CCTCCTCG,-0.333
11,CAGGTACC,-0.0981
12,CGAGAACG,-0.141
13,AGGGATCC,-0.298
14,ATGTCGCG,-0.0528
15,AGCACGAG,-0.163
16,GGTATCAA,0.075
17,GAAGAACC,-0.175
18,AATGAATT,0.267
19,GCGAGACC,-0.166
20,ACTTGTTC,0.122
21,GCTGACCA,-0.148
22,ACAGGACC,-0.0728
23,CCTCCCGC,-0.218
24,CAAGATAG,-0.0279
25,GGTACAGA,-0.239

row,Sequence,PBM 8-mer E-score
1,CCTTAATA,0.298
2,GATGCATA,0.174
3,ACTGGTGA,0.037
4,CCCCCCCA,-0.319
5,CACTCTCC,-0.0607
6,GACCGCGA,-0.295
7,CCACTCAC,0.0164
8,CATCCTGC,-0.257
9,GCGATTAC,-0.0538
10,AACCTTTC,-0.0237
11,ATTGTCGG,0.0413
12,GCGTGAGA,-0.05
13,ATTTTTGC,0.0753
14,AACCAGCA,0.0722
15,CTAGAGCC,-0.266
16,CCACAACC,-0.1
17,AAGAGAGT,0.0484
18,CGGAAAAG,0.00958
19,CAAGTTGG,0.00932
20,ATCCCATA,0.0362
21,CCCGACAC,-0.106
22,ATACTGCG,0.0537
23,AGTCACAA,0.0341
24,CATGGTCC,-0.257
25,CATGCGGC,-0.25

row,Sequence,PBM 8-mer E-score
1,ATAGCAAA,0.178
2,GTATGAGA,0.00287
3,GCAAGCCC,-0.328
4,CCAAGCGA,-0.251
5,AAGCGCGG,-0.118
6,ATGAGGAA,-0.166
7,CGTTCTCA,0.0642
8,CCCTTAGA,-0.128
9,TGACACAA,0.117
10,AATGTGTC,0.195
11,CCATCCCA,-0.188
12,ACTACGCA,-0.105
13,CAGAGAGC,-0.291
14,AACGGGCC,-0.215
15,CAACCATC,-0.215
16,GGTTCGAC,-0.0729
17,ATCTCCCC,-0.2
18,AGTGCATA,0.0813
19,ATGGGTCA,-0.0598
20,ACAAATTA,0.35
21,CAACTGGA,-0.0318
22,GATGCGCC,-0.206
